We go through 112 variants from the RNAGym collection of RNA variant scans (doi:10.7554/elife.90254).

The chains are these.
B1: LINE1-mini (parent)
chain: GGCAGAGCUCAACACAGCGUGGCAAAGUGGCUGUGGCUAGACUGCC

The source gives no read counts; variants with many changes may rest on few reads.

The variants in this data set derive from B1. The data set is described as follows: self-cleavage, relative activity (ratio to wild type); higher = more cleavage; in vitro, sequencing; the parent is a self-cleaving ribozyme.
For the variant GGCAGAGCUCAACACAGCGUGGCAAAGUGACUGUGGCUUGUCUGCC, the self-cleavage was 0.78.
The result for GGCAGAGCUCAACACAGCGUGGCAAAGGGGCUGUGGAUAGACUGCA reads 0.04.
Consider GGCAGAGCUCAACACAGCGUGGCAAAGCGCCUGUGGCCAGACUGCC, for which the self-cleavage turned out to be 0.64.
The value for GGCAGAGCUCAACACAGCGUGGCAAAGGAGCUGUGGCUAUACUGCC was 0.15; that for GGCAGAGCUCAACACAGCGUGGCAAAGUUGCUGUGCCUAGACUGGC was 0.05; that for GGCAGAGCUCAACACAGCGUGGCAAAGGGGCUGUCGACAGACUGCA was 0.03.
Consider GGCAGAGCUCAACACAGCGUGGCAAAGCGGCUGUGGCUACACCGCC, for which the self-cleavage is 0.1.
With GGCAGAGCUCAACACAGCGUGGCAAAGUUGCUGUGGCUAGAAUGGC, the self-cleavage is 0.12.
With GGCAGAGCUCAACACAGCGUGGCAAAGUAGGUGUGACUAUACUCCC, the self-cleavage is 0.05.
The result for GGCAGAGCUCAACACAGCGUGGCAAAGUGACUGUGGCUAGGCUGCU reads 0.29; that for GGCAGAGCUCAACACAGCGUGGCAAAGUUGCUGUGCGUAGACUGCC, 0.07; that for GGCAGAGCUCAACACAGCGUGGCAAAGUUGCUGUGUAUAGACUACC, 0.02.
Take GGCAGAGCUCAACACAGCGUGGCAAAGUUGCUGAAGCUAGACUGCC: the self-cleavage amounted to 0.04.
GGCAGAGCUCAACACAGCGUGGCAAAGUUGCUGUGGCGAUACUGCC: the self-cleavage turned out to be 0.03.
The result for GGCAGAGCUCAACACAGCGUGGCAAAGCGGCUGCGGCUAGACUGUC reads 1.61.
The result for GGCAGAGCUCAACACAGCGUGGCAAAGGGGCAGUGUAUAUACUGCC reads 0.06; that for GGCAGAGCUCAACACAGCGUGGCAAAGGGGCCCUGGCUAGACUGCC, 0.05.
The value for GGCAGAGCUCAACACAGCGUGGCAAAGUGACUGUGGCUGGACCGCC was 0.08; that for GGCAGAGCUCAACACAGCGUGGCAAAGUCGCUGUGGCUAGCAUGCC was 0.03; that for GGCAGAGCUCAACACAGCGUGGCAAAGUUUUUGUGGCUAGACUGCC was 0.16.
As to GGCAGAGCUCAACACAGCGUGGCAAAGUAGGUGUGACUAGACUGCC, the self-cleavage came out at 0.16.
The value for GGCAGAGCUCAACACAGCGUGGCAAAGUGAGUGUGGUUAGACUGCC was 0.02.
The result for GGCAGAGCUCAACACAGCGUGGCAAAGUAGCUGUGGCGAGUCUGCC reads 0.01; that for GGCAGAGCUCAACACAGCGUGGCAAAGUUGCUGUAUCUAUACUGCC, 0.55.
Take GGCAGAGCUCAACACAGCGUGGCAAAGUAGCUCUGGCUAGACUGCG: the self-cleavage was determined as 0.05.
The value for GGCAGAGCUCAACACAGCGUGGCAAAGUCGUUGUGGCUAGACUGAC was 0.13; that for GGCAGAGCUCAACACAGCGUGGCAAAGUAGCUGUGGUUAUACUGCC was 0.12; that for GGCAGAGCUCAACACAGCGUGGCAAAGUCGCUGUCGCUCGACUGCC was 0.08.
The result for GGCAGAGCUCAACACAGCGUGGCAAAGGGUCUGUUGCUAUACUGCC reads 0.11; that for GGCAGAGCUCAACACAGCGUGGCAAAGUUGCGGCGGCUAGACUGCC, 0.01.
Consider GGCAGAGCUCAACACAGCGUGGCAAAGGGGCGGUGACUAGACUGUC, for which the self-cleavage amounted to 0.02.
The result for GGCAGAGCUCAACACAGCGUGGCAAAGCGGCUGUAGUUAGACUGCC reads 0.04.
In the case of GGCAGAGCUCAACACAGCGUGGCAAAGUGACUGUGGCUAGGCAGCC, the self-cleavage came out at 0.06.
The value for GGCAGAGCUCAACACAGCGUGGCAAAGUCCCGGUGGCUACACUGCC was 0.01.
The value for GGCAGAGCUCAACACAGCGUGGCAAAGGGCCUGUAGCUAGACUGCC was 0.2; that for GGCAGAGCUCAACACAGCGUGGCAAAGUUGCUGUGGCUAGUCUGUC was 0.3.
As to GGCAGAGCUCAACACAGCGUGGCAAAGUGACUGUGGACAGACUGCC, the self-cleavage was determined as 0.03.
The value for GGCAGAGCUCAACACAGCGUGGCAAAGUAGCUGUGGCUAGACAGUC was 0.04; that for GGCAGAGCUCAACACAGCGUGGCAAAGUGACUGUUGCUAGGCUGCC was 0.1; that for GGCAGAGCUCAACACAGCGUGGCAAAGUAGCUGUGGCUAAAGGGCC was 0.
As for GGCAGAGCUCAACACAGCGUGGCAAAGUUGCUGUGGCUAUACUGGC, the self-cleavage turned out to be 0.06.
The value for GGCAGAGCUCAACACAGCGUGGCAAAGGGGUUGUGGCUAGACUGCU was 0.13; that for GGCAGAGCUCAACACAGCGUGGCAAAGGGGUUGUGGCUAGACUGCG was 0.07.
The result for GGCAGAGCUCAACACAGCGUGGCAAAGUAGCGGUGGCUAUACAGCC reads 0.09.
The result for GGCAGAGCUCAACACAGCGUGGCAAAGGUGCUGUGGCUAGACUGGC reads 0.03; that for GGCAGAGCUCAACACAGCGUGGCAAAGGGGCUGUGGCUCUACUGCC, 0.04.
As for GGCAGAGCUCAACACAGCGUGGCAAAGUCGCUGUGGCUAGACUCCU, the self-cleavage was determined as 0.32.
The value for GGCAGAGCUCAACACAGCGUGGCAAAGGAGCUGUGGUUAAACUGUC was 0.04.
The result for GGCAGAGCUCAACACAGCGUGGCAAAGUAUCUUUGGCUAGACUGCC reads 0.07; that for GGCAGAGCUCAACACAGCGUGGCAAAGUCGCUGCGCCUAGACUGCC, 0.19; that for GGCAGAGCUCAACACAGCGUGGCAAAGUUGGUGUGGCUAGAAUGCC, 0.06.
The value for GGCAGAGCUCAACACAGCGUGGCAAAGGCGCUGUGGCUACACUGCC was 0.
For the variant GGCAGAGCUCAACACAGCGUGGCAAAGUUGCAGUGGAAAGACUGCC, the self-cleavage came to 0.02.
The result for GGCAGAGCUCAACACAGCGUGGCAAAGUUGCUGUGGCUACACUGCA reads 0.66.
The value for GGCAGAGCUCAACACAGCGUGGCAAAGUAGUUGUGGCUAGAUUGCC was 0.25; that for GGCAGAGCUCAACACAGCGUGGCAAAGCGGCUGAGGCUAGACUGUC was 0.29.
Turning to GGCAGAGCUCAACACAGCGUGGCAAAGGGGGUGUGGCGAAACUGCC, the self-cleavage was 0.05.
Turning to GGCAGAGCUCAACACAGCGUGGCAAAGUUGCCGUCGCUAGACUGCC, the self-cleavage is 0.01.
The value for GGCAGAGCUCAACACAGCGUGGCAAAGUCUCUGUAGCUAGACUGCC was 0.03; that for GGCAGAGCUCAACACAGCGUGGCAAAGUCCCUGUGGCUAGACUGGC was 0.2; that for GGCAGAGCUCAACACAGCGUGGCAAAGCGGCGGUGUCUAGACUGCC was 0.03.
The value for GGCAGAGCUCAACACAGCGUGGCAAAGUCGCGGUGGCUUGAAUGCC was 0.04; that for GGCAGAGCUCAACACAGCGUGGCAAAGUUACUGUGGUUACACUGCC was 0.11; that for GGCAGAGCUCAACACAGCGUGGCAAAGUUGCUGUGGGUAAACUUCC was 0.2.
As to GGCAGAGCUCAACACAGCGUGGCAAAGUAUCUGUGGCUAGGCUGCA, the self-cleavage worked out at 0.05.
As for GGCAGAGCUCAACACAGCGUGGCAAAGCGGCCGUGGCUAAACUGCG, the self-cleavage worked out at 0.04.
The result for GGCAGAGCUCAACACAGCGUGGCAAAGUUGCGAUGGCUAGACUGCC reads 0.1.
Take GGCAGAGCUCAACACAGCGUGGCAAAGUCGCUGUGUCUAGUCUGCC: the self-cleavage was 0.03.
The result for GGCAGAGCUCAACACAGCGUGGCAAAGUCGCUGUGGGUAGAAUGCC reads 0.01; that for GGCAGAGCUCAACACAGCGUGGCAAAGCGCCUUUUGCUAGACUGCC, 0.15.
The result for GGCAGAGCUCAACACAGCGUGGCAAAGGGGCUAUCGCUAGACUGCC reads 0.03; that for GGCAGAGCUCAACACAGCGUGGCAAAGCGGCUGUGGCUAUAGUGCC, 0.26.
The result for GGCAGAGCUCAACACAGCGUGGCAAAGCGGCUGUGGCUAUAUUGCC reads 0.16; that for GGCAGAGCUCAACACAGCGUGGCAAAGUGACUGUGCUUAGACAGGC, 0.05.
Take GGCAGAGCUCAACACAGCGUGGCAAAGUCGCUCUAGCUAGACUGCA: the self-cleavage amounted to 0.01.
The result for GGCAGAGCUCAACACAGCGUGGCAAAGGGGCUGUGGCUAGAAUGGC reads 0.04; that for GGCAGAGCUCAACACAGCGUGGCAAAGUUGCUAUUGCUAGGCUGCC, 0.04.
As to GGCAGAGCUCAACACAGCGUGGCAAAGUAGUCGUGGCAAGACUGCC, the self-cleavage was determined as 0.23.
The value for GGCAGAGCUCAACACAGCGUGGCAAAGUAGCUGUGGUGAGACUGCC was 0.06; that for GGCAGAGCUCAACACAGCGUGGCAAAGUAGUUGGGGCUAGACUGCC was 0.09.
The result for GGCAGAGCUCAACACAGCGUGGCAAAGUACCUGUGGGUAGGCUGCC reads 0.01; that for GGCAGAGCUCAACACAGCGUGGCAAAGUCGCUGUGGCUAGCCUGAC, 0.04.
On to GGCAGAGCUCAACACAGCGUGGCAAAGUAGCUGUGGAUACACUGCC, for which the self-cleavage amounted to 0.03.
For GGCAGAGCUCAACACAGCGUGGCAAAGUCGCUGUGGCAAUACUUCC, the self-cleavage was 0.04.
Take GGCAGAGCUCAACACAGCGUGGCAAAGCGGCUGUGUCUAGACUCCC: the self-cleavage was determined as 0.07.
The value for GGCAGAGCUCAACACAGCGUGGCAAAGUUGCUGUGGCUAUACUGCG was 0.17.
On to GGCAGAGCUCAACACAGCGUGGCAAAGCGGCUGUGCGUGGACUGUC, for which the self-cleavage was 0.02.
The value for GGCAGAGCUCAACACAGCGUGGCAAAGUUGUUGUGGUUAGACUGCC was 0.02; that for GGCAGAGCUCAACACAGCGUGGCAAAGGGGCUUUGGUUAGACUGCC was 0.27.
The result for GGCAGAGCUCAACACAGCGUGGCAAAGUUGUGGUGUCUAGACUGCC reads 0.04; that for GGCAGAGCUCAACACAGCGUGGCAAAGGCGUUGUGCAUAGACUGCC, 0.1; that for GGCAGAGCUCAACACAGCGUGGCAAAGUAGCUGUGGCUAUACUCCC, 0.07.
The result for GGCAGAGCUCAACACAGCGUGGCAAAGUGACUGUGGGUAGACUGUC reads 0.06; that for GGCAGAGCUCAACACAGCGUGGCAAAGUAGCUGUGGCUAGUCUGCU, 0.81.
GGCAGAGCUCAACACAGCGUGGCAAAGGGGCUGCGGCUAGAAUGCC: the self-cleavage is 0.04.
The result for GGCAGAGCUCAACACAGCGUGGCAAAGUGACUGUCGCUAAACUGCC reads 0.03.
In the case of GGCAGAGCUCAACACAGCGUGGCAAAGUCGCAAUGGCUAGACUGCC, the self-cleavage is 0.12.
Regarding GGCAGAGCUCAACACAGCGUGGCAAAGUGACUAUGGCUGGAGUGCC, the self-cleavage was found to be 0.03.
The value for GGCAGAGCUCAACACAGCGUGGCAAAGUCGCUGUGGGUACACUGCC was 0; that for GGCAGAGCUCAACACAGCGUGGCAAAGGGACUGUGGCCAGACUGCC was 0.88.
Take GGCAGAGCUCAACACAGCGUGGCAAAGUGAGUGUGGAGAGACUGCC: the self-cleavage was determined as 0.05.
Consider GGCAGAGCUCAACACAGCGUGGCAAAGCGGCUGUCUCUAGACUGCC, for which the self-cleavage was 0.01.
With GGCAGAGCUCAACACAGCGUGGCAAAGUUGCUGUGGCUGGACUUCC, the self-cleavage came to 0.05.
The result for GGCAGAGCUCAACACAGCGUGGCAAAGUAGCUGUCGCUAGUCUGCC reads 0.03.
The result for GGCAGAGCUCAACACAGCGUGGCAAAGUGACUGUGCCUAGACUGCA reads 0.05; that for GGCAGAGCUCAACACAGCGUGGCAAAGCGCCUGAGGCUAGACUACC, 0.01.
Regarding GGCAGAGCUCAACACAGCGUGGCAAAGUCGUUGUGGCUAGACUGCU, the self-cleavage stood at 0.39.
The value for GGCAGAGCUCAACACAGCGUGGCAAAGGGGCUGGGGCUAGAGUGCC was 0.02; that for GGCAGAGCUCAACACAGCGUGGCAAAGCGGCUAUGGCUUGAUUGCC was 0.01; that for GGCAGAGCUCAACACAGCGUGGCAAAGUGACUGUGGCUAGCCAGCC was 0.04.
With GGCAGAGCUCAACACAGCGUGGCAAAGUAGCUGGCGCUAGACUGCC, the self-cleavage is 0.04.
With GGCAGAGCUCAACACAGCGUGGCAAAGGGGCUGUGGCUAGACUUCA, the self-cleavage came to 0.05.
